From article PMC9911399, “Two distinct binding modes provide the RNA-binding protein RbFox with extraordinary sequence specificity”
Where a chain is given by its changes, count along the chain named. The list shows a part of the results.

T1: RBFOX1 RRM (Homo sapiens, UniProt Q9NWB1 109-208)
T1 sequence: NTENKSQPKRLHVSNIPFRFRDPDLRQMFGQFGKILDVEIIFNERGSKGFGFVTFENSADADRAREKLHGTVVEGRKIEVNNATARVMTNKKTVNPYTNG

B1: CCAAGAC (DNA:RNA)
RNA: GGGAGACCGGAAUUCAGAUUGUCCCCAAGACUUAAAUCCCGUCGUAGCCACCA
DNA 1: CAATCTGAATTCCGGTCTCCC
DNA 2: TGGTGGCTACGACGGGATT
B2: GUUUGCG (DNA:RNA)
RNA: B1 RNA with C25G, C26U, A27U, A28U, A30C, C31G
DNA 1: CAATCTGAATTCCGGTCTCCC
DNA 2: TGGTGGCTACGACGGGATT
B3: AGUGGGU (DNA:RNA)
RNA: B1 RNA with C25A, C26G, A27U, A28G, A30G, C31U
DNA 1: CAATCTGAATTCCGGTCTCCC
DNA 2: TGGTGGCTACGACGGGATT
B4: CCUGACU (DNA:RNA)
RNA: B1 RNA with A27U, A28G, G29A, A30C, C31U
DNA 1: CAATCTGAATTCCGGTCTCCC
DNA 2: TGGTGGCTACGACGGGATT
B5: CGCACCU (DNA:RNA)
RNA: B1 RNA with C26G, A27C, G29C, A30C, C31U
DNA 1: CAATCTGAATTCCGGTCTCCC
DNA 2: TGGTGGCTACGACGGGATT
B6: AGUAUAG (DNA:RNA)
RNA: B1 RNA with C25A, C26G, A27U, G29U, C31G
DNA 1: CAATCTGAATTCCGGTCTCCC
DNA 2: TGGTGGCTACGACGGGATT
B7: GCCCCUG (DNA:RNA)
RNA: B1 RNA with C25G, A27C, A28C, G29C, A30U, C31G
DNA 1: CAATCTGAATTCCGGTCTCCC
DNA 2: TGGTGGCTACGACGGGATT
B8: ACUAGGG (DNA:RNA)
RNA: B1 RNA with C25A, A27U, A30G, C31G
DNA 1: CAATCTGAATTCCGGTCTCCC
DNA 2: TGGTGGCTACGACGGGATT
B9: GCCCGAG (DNA:RNA)
RNA: B1 RNA with C25G, A27C, A28C, C31G
DNA 1: CAATCTGAATTCCGGTCTCCC
DNA 2: TGGTGGCTACGACGGGATT
B10: CAUAAUA (DNA:RNA)
RNA: B1 RNA with C26A, A27U, G29A, A30U, C31A
DNA 1: CAATCTGAATTCCGGTCTCCC
DNA 2: TGGTGGCTACGACGGGATT
B11: CCCCCAU (DNA:RNA)
RNA: B1 RNA with A27C, A28C, G29C, C31U
DNA 1: CAATCTGAATTCCGGTCTCCC
DNA 2: TGGTGGCTACGACGGGATT
B12: UAAGGAC (DNA:RNA)
RNA: B1 RNA with C25U, C26A, A28G
DNA 1: CAATCTGAATTCCGGTCTCCC
DNA 2: TGGTGGCTACGACGGGATT
B13: CGUCACG (DNA:RNA)
RNA: B1 RNA with C26G, A27U, A28C, G29A, A30C, C31G
DNA 1: CAATCTGAATTCCGGTCTCCC
DNA 2: TGGTGGCTACGACGGGATT
B14: ACAAGUU (DNA:RNA)
RNA: B1 RNA with C25A, A30U, C31U
DNA 1: CAATCTGAATTCCGGTCTCCC
DNA 2: TGGTGGCTACGACGGGATT
B15: AUAAUUA (DNA:RNA)
RNA: B1 RNA with C25A, C26U, G29U, A30U, C31A
DNA 1: CAATCTGAATTCCGGTCTCCC
DNA 2: TGGTGGCTACGACGGGATT
B16: UAGGGGC (DNA:RNA)
RNA: B1 RNA with C25U, C26A, A27G, A28G, A30G
DNA 1: CAATCTGAATTCCGGTCTCCC
DNA 2: TGGTGGCTACGACGGGATT
B17: CAGGCUU (DNA:RNA)
RNA: B1 RNA with C26A, A27G, A28G, G29C, A30U, C31U
DNA 1: CAATCTGAATTCCGGTCTCCC
DNA 2: TGGTGGCTACGACGGGATT
B18: AGCCAUG (DNA:RNA)
RNA: GGGAGACCGGAAUUCAGAUUGUCCAGCCAUGUUAAAUCCCGUCGUAGCCACCA
DNA 1: CAATCTGAATTCCGGTCTCCC
DNA 2: TGGTGGCTACGACGGGATT
B19: CCACCAA (DNA:RNA)
RNA: B1 RNA with A28C, G29C, C31A
DNA 1: CAATCTGAATTCCGGTCTCCC
DNA 2: TGGTGGCTACGACGGGATT
B20: AUAGAUG (DNA:RNA)
RNA: B18 RNA with G26U, C27A, C28G
DNA 1: CAATCTGAATTCCGGTCTCCC
DNA 2: TGGTGGCTACGACGGGATT
B21: GUGGUGU (DNA:RNA)
RNA: GGGAGACCGGAAUUCAGAUUGUCCGUGGUGUUUAAAUCCCGUCGUAGCCACCA
DNA 1: CAATCTGAATTCCGGTCTCCC
DNA 2: TGGTGGCTACGACGGGATT
B22: GCCAGAU (DNA:RNA)
RNA: B1 RNA with C25G, A27C, C31U
DNA 1: CAATCTGAATTCCGGTCTCCC
DNA 2: TGGTGGCTACGACGGGATT
B23: ACCCACC (DNA:RNA)
RNA: B18 RNA with G26C, U30C, G31C
DNA 1: CAATCTGAATTCCGGTCTCCC
DNA 2: TGGTGGCTACGACGGGATT
B24: UUUCAAU (DNA:RNA)
RNA: B18 RNA with A25U, G26U, C27U, U30A, G31U
DNA 1: CAATCTGAATTCCGGTCTCCC
DNA 2: TGGTGGCTACGACGGGATT
B25: GGAGAGG (DNA:RNA)
RNA: B18 RNA with A25G, C27A, C28G, U30G
DNA 1: CAATCTGAATTCCGGTCTCCC
DNA 2: TGGTGGCTACGACGGGATT
B26: AUGCAGG (DNA:RNA)
RNA: B18 RNA with G26U, C27G, U30G
DNA 1: CAATCTGAATTCCGGTCTCCC
DNA 2: TGGTGGCTACGACGGGATT
B27: AACUGUU (DNA:RNA)
RNA: B18 RNA with G26A, C28U, A29G, G31U
DNA 1: CAATCTGAATTCCGGTCTCCC
DNA 2: TGGTGGCTACGACGGGATT
B28: GGGCAAA (DNA:RNA)
RNA: B18 RNA with A25G, C27G, U30A, G31A
DNA 1: CAATCTGAATTCCGGTCTCCC
DNA 2: TGGTGGCTACGACGGGATT
B29: CAAAGAA (DNA:RNA)
RNA: B1 RNA with C26A, C31A
DNA 1: CAATCTGAATTCCGGTCTCCC
DNA 2: TGGTGGCTACGACGGGATT
B30: GCGAACU (DNA:RNA)
RNA: B21 RNA with U26C, G28A, U29A, G30C
DNA 1: CAATCTGAATTCCGGTCTCCC
DNA 2: TGGTGGCTACGACGGGATT
B31: AUUUAGC (DNA:RNA)
RNA: B18 RNA with G26U, C27U, C28U, U30G, G31C
DNA 1: CAATCTGAATTCCGGTCTCCC
DNA 2: TGGTGGCTACGACGGGATT

Molecular target: T1, RBFOX1 RRM
Test: EMSA; HiTS-Eq, 1 nM pool, 10 min; buffer printed only for the single-RNA assays: 10 mM Tris pH 7.5, 150 mM NaCl, 3.4 mM EDTA, 0.001% NP-40, 30 C
Settings: tags: His6 N-terminal (pET28a); label: 5' 32P
Summary of the method: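 Relative association constants, normalised to the cognate motif, were derived by comparing read counts of each RNA species with those of the control reaction. The RNA sequenced was the free fraction, separated by 8% native PAGE after a 10 min equilibration in 50 µL of 1 nM 5′-radiolabelled RNA (7 randomized nucleotides) with increasing concentrations of purified wild-type or mutant RbFox RRM.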

Binder | binding signal
B1 | 0.00366 KA relative to UGCAUGU
B2 | 0.0282 KA relative to UGCAUGU
B3 | 0.0107 KA relative to UGCAUGU
B4 | 0.0116 KA relative to UGCAUGU
B5 | 0.0111 KA relative to UGCAUGU
B6 | 0.00549 KA relative to UGCAUGU
B7 | 0.016 KA relative to UGCAUGU
B8 | 0.00548 KA relative to UGCAUGU
B9 | 0.0155 KA relative to UGCAUGU
B10 | 0.000351 KA relative to UGCAUGU
B11 | 0.00472 KA relative to UGCAUGU
B12 | 0.00395 KA relative to UGCAUGU
B13 | 0.00726 KA relative to UGCAUGU
B14 | 0.00111 KA relative to UGCAUGU
B15 | 0.000991 KA relative to UGCAUGU
B16 | 0.00528 KA relative to UGCAUGU

Binder | binding signal
B17 | 0.0134 KA relative to UGCAUGU
B18 | 0.0102 KA relative to UGCAUGU
B19 | 0.000328 KA relative to UGCAUGU
B20 | 0.00871 KA relative to UGCAUGU
B21 | 0.0221 KA relative to UGCAUGU
B22 | 0.011 KA relative to UGCAUGU
B23 | 0.000895 KA relative to UGCAUGU
B24 | 0.00374 KA relative to UGCAUGU
B25 | 0.0192 KA relative to UGCAUGU
B26 | 0.014 KA relative to UGCAUGU
B27 | 0.00468 KA relative to UGCAUGU
B28 | 0.0043 KA relative to UGCAUGU
B29 | 0.000523 KA relative to UGCAUGU
B30 | 0.00939 KA relative to UGCAUGU
B31 | 0.00445 KA relative to UGCAUGU
